Measurements reported in paper PMC9911399, “Two distinct binding modes provide the RNA-binding protein RbFox with extraordinary sequence specificity”.
Numbering of substitutions follows the chain as printed; changes in the protein carry UniProt numbers. This is one part of the list.

T1: RBFOX1 RRM (Homo sapiens, UniProt Q9NWB1 109-208)
T1 sequence: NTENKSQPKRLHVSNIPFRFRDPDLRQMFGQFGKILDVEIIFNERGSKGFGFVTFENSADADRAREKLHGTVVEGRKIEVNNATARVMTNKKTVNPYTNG

B1: CGAAACU (DNA:RNA)
RNA: GGGAGACCGGAAUUCAGAUUGUCCCGAAACUUUAAAUCCCGUCGUAGCCACCA
DNA 1: CAATCTGAATTCCGGTCTCCC
DNA 2: TGGTGGCTACGACGGGATT
B2: AUAUGGG (DNA:RNA)
RNA: B1 RNA with C25A, G26U, A28U, A29G, C30G, U31G
DNA 1: CAATCTGAATTCCGGTCTCCC
DNA 2: TGGTGGCTACGACGGGATT
B3: AACUUCC (DNA:RNA)
RNA: B1 RNA with C25A, G26A, A27C, A28U, A29U, U31C
DNA 1: CAATCTGAATTCCGGTCTCCC
DNA 2: TGGTGGCTACGACGGGATT
B4: GUACCAU (DNA:RNA)
RNA: B1 RNA with C25G, G26U, A28C, A29C, C30A
DNA 1: CAATCTGAATTCCGGTCTCCC
DNA 2: TGGTGGCTACGACGGGATT
B5: UUGCUCU (DNA:RNA)
RNA: B1 RNA with C25U, G26U, A27G, A28C, A29U
DNA 1: CAATCTGAATTCCGGTCTCCC
DNA 2: TGGTGGCTACGACGGGATT
B6: AAUAACU (DNA:RNA)
RNA: B1 RNA with C25A, G26A, A27U
DNA 1: CAATCTGAATTCCGGTCTCCC
DNA 2: TGGTGGCTACGACGGGATT
B7: GGCGUAG (DNA:RNA)
RNA: B1 RNA with C25G, A27C, A28G, A29U, C30A, U31G
DNA 1: CAATCTGAATTCCGGTCTCCC
DNA 2: TGGTGGCTACGACGGGATT
B8: CGCACGC (DNA:RNA)
RNA: B1 RNA with A27C, A29C, C30G, U31C
DNA 1: CAATCTGAATTCCGGTCTCCC
DNA 2: TGGTGGCTACGACGGGATT
B9: CGUGCAC (DNA:RNA)
RNA: B1 RNA with A27U, A28G, A29C, C30A, U31C
DNA 1: CAATCTGAATTCCGGTCTCCC
DNA 2: TGGTGGCTACGACGGGATT
B10: UGAAAUC (DNA:RNA)
RNA: B1 RNA with C25U, C30U, U31C
DNA 1: CAATCTGAATTCCGGTCTCCC
DNA 2: TGGTGGCTACGACGGGATT
B11: AAUCUGC (DNA:RNA)
RNA: GGGAGACCGGAAUUCAGAUUGUCCAAUCUGCUUAAAUCCCGUCGUAGCCACCA
DNA 1: CAATCTGAATTCCGGTCTCCC
DNA 2: TGGTGGCTACGACGGGATT
B12: ACUCGUA (DNA:RNA)
RNA: B11 RNA with A26C, U29G, G30U, C31A
DNA 1: CAATCTGAATTCCGGTCTCCC
DNA 2: TGGTGGCTACGACGGGATT
B13: GUGACUU (DNA:RNA)
RNA: B1 RNA with C25G, G26U, A27G, A29C, C30U
DNA 1: CAATCTGAATTCCGGTCTCCC
DNA 2: TGGTGGCTACGACGGGATT
B14: AUACCGU (DNA:RNA)
RNA: B11 RNA with A26U, U27A, U29C, C31U
DNA 1: CAATCTGAATTCCGGTCTCCC
DNA 2: TGGTGGCTACGACGGGATT
B15: CUGCCGA (DNA:RNA)
RNA: B11 RNA with A25C, A26U, U27G, U29C, C31A
DNA 1: CAATCTGAATTCCGGTCTCCC
DNA 2: TGGTGGCTACGACGGGATT
B16: AGUCACA (DNA:RNA)
RNA: B11 RNA with A26G, U29A, G30C, C31A
DNA 1: CAATCTGAATTCCGGTCTCCC
DNA 2: TGGTGGCTACGACGGGATT
B17: GUUGAAA (DNA:RNA)
RNA: B11 RNA with A25G, A26U, C28G, U29A, G30A, C31A
DNA 1: CAATCTGAATTCCGGTCTCCC
DNA 2: TGGTGGCTACGACGGGATT
B18: AACUCUC (DNA:RNA)
RNA: B11 RNA with U27C, C28U, U29C, G30U
DNA 1: CAATCTGAATTCCGGTCTCCC
DNA 2: TGGTGGCTACGACGGGATT
B19: GAACCCC (DNA:RNA)
RNA: B11 RNA with A25G, U27A, U29C, G30C
DNA 1: CAATCTGAATTCCGGTCTCCC
DNA 2: TGGTGGCTACGACGGGATT
B20: UUUACGG (DNA:RNA)
RNA: B11 RNA with A25U, A26U, C28A, U29C, C31G
DNA 1: CAATCTGAATTCCGGTCTCCC
DNA 2: TGGTGGCTACGACGGGATT
B21: GACACAU (DNA:RNA)
RNA: B1 RNA with C25G, G26A, A27C, A29C, C30A
DNA 1: CAATCTGAATTCCGGTCTCCC
DNA 2: TGGTGGCTACGACGGGATT
B22: AACUCGG (DNA:RNA)
RNA: B11 RNA with U27C, C28U, U29C, C31G
DNA 1: CAATCTGAATTCCGGTCTCCC
DNA 2: TGGTGGCTACGACGGGATT
B23: CACUUCA (DNA:RNA)
RNA: B11 RNA with A25C, U27C, C28U, G30C, C31A
DNA 1: CAATCTGAATTCCGGTCTCCC
DNA 2: TGGTGGCTACGACGGGATT
B24: AGGACUG (DNA:RNA)
RNA: B1 RNA with C25A, A27G, A29C, C30U, U31G
DNA 1: CAATCTGAATTCCGGTCTCCC
DNA 2: TGGTGGCTACGACGGGATT
B25: UAUUGGA (DNA:RNA)
RNA: B11 RNA with A25U, C28U, U29G, C31A
DNA 1: CAATCTGAATTCCGGTCTCCC
DNA 2: TGGTGGCTACGACGGGATT
B26: CAAGUGA (DNA:RNA)
RNA: B11 RNA with A25C, U27A, C28G, C31A
DNA 1: CAATCTGAATTCCGGTCTCCC
DNA 2: TGGTGGCTACGACGGGATT
B27: AGAGCGG (DNA:RNA)
RNA: B11 RNA with A26G, U27A, C28G, U29C, C31G
DNA 1: CAATCTGAATTCCGGTCTCCC
DNA 2: TGGTGGCTACGACGGGATT
B28: AGUGUGA (DNA:RNA)
RNA: B11 RNA with A26G, C28G, C31A
DNA 1: CAATCTGAATTCCGGTCTCCC
DNA 2: TGGTGGCTACGACGGGATT
B29: CUUCAAG (DNA:RNA)
RNA: B11 RNA with A25C, A26U, U29A, G30A, C31G
DNA 1: CAATCTGAATTCCGGTCTCCC
DNA 2: TGGTGGCTACGACGGGATT
B30: UUUCCAC (DNA:RNA)
RNA: B11 RNA with A25U, A26U, U29C, G30A
DNA 1: CAATCTGAATTCCGGTCTCCC
DNA 2: TGGTGGCTACGACGGGATT
B31: AUAUACC (DNA:RNA)
RNA: B1 RNA with C25A, G26U, A28U, U31C
DNA 1: CAATCTGAATTCCGGTCTCCC
DNA 2: TGGTGGCTACGACGGGATT

Target: T1, RBFOX1 RRM
Assay: EMSA; HiTS-Eq, 1 nM pool, 10 min; buffer printed only for the single-RNA assays: 10 mM Tris pH 7.5, 150 mM NaCl, 3.4 mM EDTA, 0.001% NP-40, 30 C
Details: tags: His6 N-terminal (pET28a); label: 5' 32P
Outline: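 Relative association constants, normalised to the cognate motif, were derived by comparing read counts of each RNA species with those of the control reaction. The RNA sequenced was the free fraction, separated by 8% native PAGE after a 10 min equilibration in 50 µL of 1 nM 5′-radiolabelled RNA (7 randomized nucleotides) with increasing concentrations of purified wild-type or mutant RbFox RRM.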

Row | Binder | binding signal
1 | B1 | 0.00281 KA relative to UGCAUGU
2 | B2 | 0.00401 KA relative to UGCAUGU
3 | B3 | 0.00414 KA relative to UGCAUGU
4 | B4 | 0.00178 KA relative to UGCAUGU
5 | B5 | 0.0225 KA relative to UGCAUGU
6 | B6 | 0.000238 KA relative to UGCAUGU
7 | B7 | 0.0147 KA relative to UGCAUGU
8 | B8 | 0.0306 KA relative to UGCAUGU
9 | B9 | 0.022 KA relative to UGCAUGU
10 | B10 | 0.00702 KA relative to UGCAUGU
11 | B11 | 0.0105 KA relative to UGCAUGU
12 | B12 | 0.00301 KA relative to UGCAUGU
13 | B13 | 0.0115 KA relative to UGCAUGU
14 | B14 | 0.00101 KA relative to UGCAUGU
15 | B15 | 0.0174 KA relative to UGCAUGU
16 | B16 | 0.00276 KA relative to UGCAUGU

Row | Binder | binding signal
17 | B17 | 0.0149 KA relative to UGCAUGU
18 | B18 | 0.00388 KA relative to UGCAUGU
19 | B19 | 0.00621 KA relative to UGCAUGU
20 | B20 | 0.00929 KA relative to UGCAUGU
21 | B21 | 0.000474 KA relative to UGCAUGU
22 | B22 | 0.00669 KA relative to UGCAUGU
23 | B23 | 0.00273 KA relative to UGCAUGU
24 | B24 | 0.0275 KA relative to UGCAUGU
25 | B25 | 0.00224 KA relative to UGCAUGU
26 | B26 | 0.00534 KA relative to UGCAUGU
27 | B27 | 0.0162 KA relative to UGCAUGU
28 | B28 | 0.0118 KA relative to UGCAUGU
29 | B29 | 0.00594 KA relative to UGCAUGU
30 | B30 | 0.00205 KA relative to UGCAUGU
31 | B31 | 0.00226 KA relative to UGCAUGU
